# Measurements as given in publication PMC4336329 (PLoS ONE, 2015).
# The whole screen tested about 310,000 compounds, of which about 2,200 (0.71%) showed an effect of 50% or more. Effects have a minus sign here. The list shows a part of the results.
# Target: human ether-à-go-go-related gene (hERG) potassium channel (human, UniProt Q12809)
# Assay: primary screen, population patch clamp on CHO cells stably expressing hERG
# human ether-à-go-go-related gene (hERG) potassium channel, sequence (Q12809 whole entry, looked up): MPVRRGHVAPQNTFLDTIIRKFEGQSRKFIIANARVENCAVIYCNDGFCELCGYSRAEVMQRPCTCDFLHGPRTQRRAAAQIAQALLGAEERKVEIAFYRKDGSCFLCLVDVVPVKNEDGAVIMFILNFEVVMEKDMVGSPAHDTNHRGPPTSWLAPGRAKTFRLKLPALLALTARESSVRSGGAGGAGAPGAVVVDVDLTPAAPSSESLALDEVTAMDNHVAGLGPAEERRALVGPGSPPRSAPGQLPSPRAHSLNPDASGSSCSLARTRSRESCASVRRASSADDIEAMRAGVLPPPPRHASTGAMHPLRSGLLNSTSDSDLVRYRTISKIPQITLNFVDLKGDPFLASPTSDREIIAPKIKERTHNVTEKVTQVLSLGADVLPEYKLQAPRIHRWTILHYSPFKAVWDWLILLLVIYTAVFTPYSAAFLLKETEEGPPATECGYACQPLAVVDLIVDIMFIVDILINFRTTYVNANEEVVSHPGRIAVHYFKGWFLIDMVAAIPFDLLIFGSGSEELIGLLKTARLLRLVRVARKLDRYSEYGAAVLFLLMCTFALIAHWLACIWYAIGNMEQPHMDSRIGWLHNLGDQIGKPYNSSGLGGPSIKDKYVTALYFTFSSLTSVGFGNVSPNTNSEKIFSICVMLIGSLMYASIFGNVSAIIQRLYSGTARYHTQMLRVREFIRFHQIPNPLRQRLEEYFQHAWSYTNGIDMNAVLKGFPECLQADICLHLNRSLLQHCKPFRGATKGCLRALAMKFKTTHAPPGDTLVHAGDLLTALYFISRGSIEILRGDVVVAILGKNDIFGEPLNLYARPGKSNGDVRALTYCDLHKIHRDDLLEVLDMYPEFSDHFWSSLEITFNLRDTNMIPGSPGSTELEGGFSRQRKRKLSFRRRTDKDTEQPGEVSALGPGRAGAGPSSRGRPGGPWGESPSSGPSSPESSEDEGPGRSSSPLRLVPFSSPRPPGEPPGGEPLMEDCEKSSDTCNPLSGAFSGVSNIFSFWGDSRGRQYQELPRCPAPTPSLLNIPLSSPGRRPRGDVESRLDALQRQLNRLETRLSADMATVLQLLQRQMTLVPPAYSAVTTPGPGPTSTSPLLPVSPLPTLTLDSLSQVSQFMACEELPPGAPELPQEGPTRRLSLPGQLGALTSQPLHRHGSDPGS
row,SMILES,"hERG current change (%, negative = inhibition) at 1uM"
1,COc1ccc(C(=S)N2CCOCC2)cc1OC(=O)c1ccc([N+](=O)[O-])cc1[N+](=O)[O-],-63.1%
2,COC(=O)c1ccc(C(=O)NC2CCSc3ccccc32)cc1 (centres unmarked),15.2%
3,CC(=O)CC(C)(C)NC(C)=S,7.42%
4,O=c1onc(-c2cccnc2)n1-c1ccccc1F,14.6%
5,O=[N+]([O-])/C(C(=C(Cl)Cl)N1CCN(Cc2ccccc2)CC1)=C1\NCCN1Cc1ccc(Cl)nc1,10.7%
6,O=C(CN1CCCc2ccccc21)Nc1ccc(F)cc1[N+](=O)[O-],0.675%
7,O=C1CC(c2ccco2)Cc2nc(Nc3ccc(F)cc3)ncc21 (centres unmarked),-2.32%
8,CCOc1cc(C(=O)NC(C)COC)cc(OCC)c1OCC (centres unmarked),1.02%
9,CCC1CCCCN1CCCNC(=O)CN1C(=O)CSc2ccc(S(=O)(=O)N3CCC(C)CC3)cc21 (centres unmarked),14.1%
10,CC(=O)N/C(=N\c1nc(C)cc(C)n1)Nc1ccc2ccccc2c1,13.5%
11,C/C(=N\NC(=O)CC1N=C(Cc2ccccc2)NNC1=O)c1ccc(Br)cc1 (centres unmarked),15.8%
12,CN1CCN(C(=O)c2ccc(OCCOc3ccccc3)cc2)CC1,6.61%
13,COc1ccc(C(=O)Nc2cccc(C(C)=O)c2)c(OC)c1OC,9.05%
14,COc1ccc(S(=O)(=O)NCC(c2ccc(C)cc2)N2CCN(C)CC2)cc1OC (centres unmarked),8.32%
15,CCOc1cc(CNC(=O)CN2C(=O)c3ccccc3S2(=O)=O)ccc1OC,7.61%
16,Cc1cccc(C)c1OCC(=O)N/N=C/C=C/c1ccco1,12.6%
17,CC(C)NCC(=O)Nc1c2c(nc3ccccc13)CCC2.O=C(O)C(=O)O,7.38%
18,C/C(=N\NC(=O)C1COc2ccccc2O1)c1ccc(C)o1 (centres unmarked),12.7%
19,c1cnc2nc(-c3ccc4c(c3)OCO4)cn2c1,6.52%

row,SMILES,"hERG current change (%, negative = inhibition) at 1uM"
1,CNC(=O)C1=C(C)n2c(nc3ccccc32)NC1c1ccc(OC)cc1 (centres unmarked),5.76%
2,Cc1cc(C)c(S(=O)(=O)N2CCCCC2CCNC(=O)C(=O)NCC2CCCO2)c(C)c1 (centres unmarked),3.04%
3,O=C(COc1ccc(Cl)cc1Cl)NC(=S)N1CCCc2ccccc21,14.8%
4,CN(C)Cc1ccccc1CCc1ccccc1.Cl,7.19%
5,CN1CCc2c(OCC(=O)N3CCC(Cc4ccccc4)CC3)cccc2C1=O,-2.56%
6,CN(C)S(=O)(=O)c1cccc(C(=O)Nc2ccccc2N2CCCCC2)c1,16.6%
7,Cc1ccc(C(=O)c2cc3ccccc3o2)cc1[N+](=O)[O-],14.3%
8,O=C(CSc1nnc(-c2ccc(Br)cc2)o1)N1CCN(C(=O)c2ccco2)CC1,-8.84%
9,CC(C)(C)NC(=O)C(=O)NN=C1CCCCCCC1,7.64%
10,CCOC(=O)CC1COCCN1Cc1cn[nH]c1-c1cc(OC)c(OC)c(OC)c1 (centres unmarked),3.28%
11,O=C(Cn1cnc2ccccc21)N/N=C/c1cccnc1,17.4%
12,CN(c1ccc([N+](=O)[O-])cc1C(N)=O)C1CCCCC1,7.23%
13,CCOc1ccc(NC(=S)N(CCOC)C(C)c2cccnc2)cc1 (centres unmarked),14.9%
14,Cc1cccc(N(CC(=O)N/N=C/c2ccc(OCC(=O)NCc3ccco3)cc2)S(C)(=O)=O)c1C,9.76%
15,Cc1cc(C)c2nc(-c3cccnc3)cc(C(=O)NC(C)c3cnn(C)c3C)c2c1 (centres unmarked),12.1%
16,Oc1ccc(C2C(c3ccccc3)=NN=C(c3ccccc3F)N2O)c(O)c1 (centres unmarked),11.6%
17,Cc1cccc2c1N(CCCOc1ccccc1)C(=O)C2=O,-2.18%
18,COCC1=C(C(=O)OC(C)OC(=O)OC(C)C)N2C(=O)[C@@H](NC(=O)/C(=N\OC)c3csc(N)n3)[C@H]2SC1 (some centres unmarked),10.2%
19,COc1ccc(CNc2oc(COc3ccccc3)nc2C#N)cc1,9.97%

row,SMILES,"hERG current change (%, negative = inhibition) at 1uM"
1,COc1cc(CN(CC2CCCO2)C(=O)c2ccco2)cc(OC)c1OC (centres unmarked),15.3%
2,CNC(=O)c1snnc1-c1ccccc1,10.6%
3,CC1(C(=O)NCc2ccccc2)Oc2ccccc2NC1=O (centres unmarked),13.9%
4,Cc1csc(=O)n1CC(=O)OCC(=O)N(CC(C)C)c1c(N)n(Cc2ccccc2)c(=O)[nH]c1=O,2.14%
5,CCc1ccccc1NC(=O)CSC1=C(C#N)C(c2ccc(O)c(OC)c2)C2=C(CCCC2=O)N1 (centres unmarked),11.8%
6,CCOC(=O)c1nc[nH]c1C,-3.87%
7,CC(=O)c1ccccn1,16.6%
8,O=C(N/N=C/c1ccc(OCC(=O)N2CCCCC2)cc1)c1ccccc1O,10%
9,Cc1ccc(S(=O)(=O)Nc2nc(-c3ccccc3)cs2)cc1,15.1%
10,CCOC(=O)CN1C(=O)N(c2ccccc2OC)S(=O)(=O)c2ccccc21,18.2%
11,CC(NC(=O)c1ccccc1Cl)c1ccc(-n2ccnc2)cc1 (centres unmarked),-1.53%
12,COc1ccccc1OCC(=O)NCCSCc1ccc(Cl)cc1,1.98%
13,O=C(CN(Cc1ccco1)C(=O)c1cc(=O)[nH]c2ccccc12)Nc1ccccc1C(F)(F)F,7.43%
14,CC(Oc1ccccc1)C(=O)Nc1nnc(S(=O)(=O)Nc2ccccc2)s1 (centres unmarked),9.03%
15,Cc1ccc(S(=O)(=O)N2CCN=C2SC(C)c2ccccc2)cc1 (centres unmarked),7.77%
16,CCOC(=O)N1CCN(S(=O)(=O)c2ccc(C(=O)N(CCN(CC)CC)c3nc4ccc(C)cc4s3)cc2)CC1.Cl,0.455%
17,Cn1c(=O)c2c(ncn2CC(=O)N/N=C/C(Br)=C/c2ccccc2)n(C)c1=O,4.08%
18,CN1CCCC1=Nc1c2c(nc3ccccc13)N(C)CC2,9.42%
